Measurements: patent publication US20220306748A1 (SHINE ON BIOMEDICAL, published 2022)

How the values were obtained:
[1] = molecular target: programmed cell death ligand 1 (PD-L1) recombinant protein (UniProt Q9NZQ7 in part, limits assumed); test: SPR kinetics (BIAcore T200), PD-L1 as immobilised ligand, analyte 0.78125-100 nM, flow 30 µL/min, association 120 s, dissociation 900 s
[2] = molecular target: T1, CD3ε (CD3 epsilon) recombinant protein (UniProt P07766 23-126, limits assumed); test: SPR kinetics (BIAcore T200), CD3ε as immobilised ligand, analyte 28.125-3600 nM, flow 15 µL/min, association 350 s, dissociation 900 s
T1 construct: The method says 'CD3 recombinant protein', while the legend and the result say CD3ε
T1 sequence (P07766 23-126 limits assumed): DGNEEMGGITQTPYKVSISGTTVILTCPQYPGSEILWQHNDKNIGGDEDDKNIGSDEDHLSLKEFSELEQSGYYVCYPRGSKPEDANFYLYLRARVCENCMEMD

Sequence of UniProt Q9NZQ7 (Q9NZQ7 19-238 limits assumed): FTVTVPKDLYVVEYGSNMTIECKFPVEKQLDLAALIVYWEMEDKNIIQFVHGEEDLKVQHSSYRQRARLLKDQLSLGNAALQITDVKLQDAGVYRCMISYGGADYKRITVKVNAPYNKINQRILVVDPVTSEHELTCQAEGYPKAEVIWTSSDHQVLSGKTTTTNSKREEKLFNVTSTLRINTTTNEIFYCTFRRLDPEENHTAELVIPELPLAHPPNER

koff [2]: 0.000173 s⁻¹
kon [2]: 49800 M⁻¹ s⁻¹
B1: PD-L1×HLA-G×CD3ε nanobody-based triple specific T-cell engager (PD-L1×HLA-G×CD3ε nanobody-based TriTE) (Fc fusion)
chain: HVQLVESGGGLVQPGGSLRISCAASGFTFSSRAMSWVRQAPGKGLEWVSTINSDGSNTYYSDSVKDRFTISRDNAINTLYLQLNSLKTEDTAMYYCSRCPDIYCGGQYTYRGQGTQVTVSSGGGGSGGGGSGGGGSHVQLVESGGGSVQAGGSLKLSCVTSAYTFSASGNCMGWLRQAPGKGREGIAATYTRSAKTYYADSVKGRFTISQDNAKNTVYLQMNGLKPEDTATYYCAVARCAGRPDRSTLTSFAWWGQGTQVTVSSHVQLVESGGGSVQAGGSLRLSCTVSGVIFKNEYMGWFRQAPGKEREGVAAASPGGTITYYGDSVKGRFTISRDNAKNTVYLQMNRLKPEDTAMYYCALDPSTTSWSIIRHGPSLWRYSGRGTQVTVSS[letters of human IgG1 Fc with V279Y (EU numbers) left out]
notes: The order of the parts follows the listing in the text (signal peptide, VHH1, flexible linker, VHH2, VHH3, CH2-CH3); More linkers may stand between VHH2/VHH3 and VHH3/Fc; also called Nb-TriTE; immunomodulation and anti-tumor-related nanobody
koff [1]: 0.000919 s⁻¹
kon [1]: 349000 M⁻¹ s⁻¹
